Results published in patent US20230365641A1 (XILIO DEVELOPMENT, published 2023).

How the values were obtained:
[1] = target: PD-1 (antigen of the ELISA and of the in vitro affinity measurement) (UniProt Q15116 in part, limits assumed); experiment: ELISA on PD-1
[2] = target: T1, PD-1 shown on cells (Raji-PD-1 cells); CD3/CD28 activated human CD8+ T cells; PD-1 effector cells of the … (human, UniProt Q15116 25-288); experiment: cell-based or functional assay
[3] = target: T1, PD-1 shown on cells (Raji-PD-1 cells; …); experiment: flow cytometry, on-cell binding to PD-1 expressing Raji cells, anti-human IgG-PE
[4] = target: T1, PD-1 shown on cells (Raji-PD-1 cells; …); experiment: as above; remark: listed apart in the source

B1: TC29 (Fc fusion)
heavy 1: QVQLVQSGVEVKKPGASVKVSCKASGYTFTNYYMYWVRQAPGQGLEWMGGINPSNGGTNFNEKFKNRVTLTTDSSTTTAYMELKSLQFDDTAVYYCARRDYRFDMGFDYWGQGTTVTVSSASTKGPSVFPLAPSSKSTSGGTAALGCLVKDYFPEPVTVSWNSGALTSGVHTFPAVLQSSGLYSLSSVVTVPSSSLGTQTYICNVNHKPSNTKVDKKVEPKSCDKTHTCPPCPAPELLGGPSVFLFPPKPKDTLMISRTPEVTCVVVDVSHEDPEVKFNWYVDGVEVHNAKTKPREEQYASTYRVVSVLTVLHQDWLNGKEYKCKVSNKALPAPIEKTISKAKGQPREPQVYTLPPCRDELTKNQVSLWCLVKGFYPSDIAVEWESNGQPENNYKTTPPVLDSDGSFFLYSKLTVDKSRWQQGNVFSCSVMHEALHNRFTQKSLSLSPGGGSSPPGGGSSGGGSGPAPTSSSTKKTQLQLEHLLLDLQMILNGINNYKNPKLTAMLTAKFAMPKKATELKHLQCLEEALKPLEEVLNLAQSKNFHLRPRDLISNINVIVLELKGSETTFMCEYADETATIVEFLNRWITFAQSIISTLT
heavy 2: QVQLVQSGVEVKKPGASVKVSCKASGYTFTNYYMYWVRQAPGQGLEWMGGINPSNGGTNFNEKFKNRVTLTTDSSTTTAYMELKSLQFDDTAVYYCARRDYRFDMGFDYWGQGTTVTVSSASTKGPSVFPLAPSSKSTSGGTAALGCLVKDYFPEPVTVSWNSGALTSGVHTFPAVLQSSGLYSLSSVVTVPSSSLGTQTYICNVNHKPSNTKVDKKV[not shown - human IgG1 Fc with changes]
light: EIVLTQSPATLSLSPGERATLSCRASKGVSTSGYSYLHWYQQKPGQAPRLLIYLASYLESGVPARFSGSGSGTDFTLTISSLEPEDFAVYYCQHSRDLPLTFGGGTKVEIKRTVAAPSVFIFPPSDEQLKSGTASVVCLLNNFYPREAKVQWKVDNALQSGNSQESVTEQDSKDSTYSLSSTLTLSKADYEKHKVYACEVTHQGLSSPVTKSFNRGEC
notes: also called Parental, no mask; PD-1 targeted (Pembro Fab2), unmasked TC29
- Kd [1]: 0.16 nM
- EC50, PD-1 Blockade RGA Assay [2]: 0.779 nM
- EC50 (read off the curve) [3]: ~0.7 nM
- EC50 [4]: 0.7 nM
